Experimental data from the supplement of paper PMC3334620.
Whole data set: some 33,000 sequences, median “E-score (-0.5 to 0.5)” near -0.021, cut for the highest 2% near 0.32. The list shows a part of the results.

biological target: T1, Zap1 (UniProt P47043); assay: PBM E-score (8-mer binding enrichment) (E-score (-0.5 to 0.5)); higher = stronger / more preferred TF binding; most listed sequences are background and not binding sites; conditions: protein concentration: 200 nM; construct: GST-full length
T1 sequence: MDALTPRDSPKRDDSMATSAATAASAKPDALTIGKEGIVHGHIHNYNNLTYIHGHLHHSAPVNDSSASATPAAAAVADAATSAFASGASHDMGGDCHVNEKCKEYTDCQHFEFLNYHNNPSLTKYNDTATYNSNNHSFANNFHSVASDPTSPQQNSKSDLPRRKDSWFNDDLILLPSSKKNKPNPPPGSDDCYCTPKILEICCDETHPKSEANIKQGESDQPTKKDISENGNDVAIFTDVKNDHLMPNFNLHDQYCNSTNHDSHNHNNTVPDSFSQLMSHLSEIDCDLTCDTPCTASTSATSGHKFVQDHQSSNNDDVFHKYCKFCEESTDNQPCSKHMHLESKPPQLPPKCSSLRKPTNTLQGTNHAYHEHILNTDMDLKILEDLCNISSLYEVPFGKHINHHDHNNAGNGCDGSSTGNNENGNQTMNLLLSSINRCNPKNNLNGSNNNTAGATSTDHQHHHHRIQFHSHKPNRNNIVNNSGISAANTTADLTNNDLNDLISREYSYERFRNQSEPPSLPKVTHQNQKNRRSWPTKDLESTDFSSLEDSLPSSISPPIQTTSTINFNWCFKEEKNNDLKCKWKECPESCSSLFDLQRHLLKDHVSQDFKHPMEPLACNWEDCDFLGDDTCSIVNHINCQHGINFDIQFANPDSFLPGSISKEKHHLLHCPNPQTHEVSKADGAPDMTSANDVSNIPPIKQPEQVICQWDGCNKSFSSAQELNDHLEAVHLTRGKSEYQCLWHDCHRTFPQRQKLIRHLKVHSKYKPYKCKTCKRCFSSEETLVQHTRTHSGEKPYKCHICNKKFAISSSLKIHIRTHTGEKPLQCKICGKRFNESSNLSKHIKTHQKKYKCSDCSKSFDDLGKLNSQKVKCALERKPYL
Experimental: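 Universal 'all 10-mer' protein binding microarrays (Agilent AMADID 015681) probed with GST-tagged S. cerevisiae TFs (full-length or DBD) made by in vitro transcription/translation (PURExpress), about 100-200 nM. Bound TF was detected with fluorescent anti-GST. Each ungapped 8-mer (which stands for itself and its reverse complement) is scored by the PBM enrichment score (E-score), a modified Wilcoxon-Mann-Whitney statistic from -0.5 to +0.5, computed with the Universal PBM Analysis Suite. Scale: above 0.35 generally sequence-specific binding.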

Sequence	PBM E-score
ACTTGGAT	0.156
TGAGTAAA	0.0227
AAAAAAAT	0.176
TGGTAACA	0.0812
CTCAGAGC	-0.198
GAAAACGA	0.0161
AGAGTAGC	-0.202
AAATTACC	0.307
GAGAAAAC	0.0811
AATATAGT	0.0896
ATATGAAA	0.264
ATAATTGG	0.0347
TATCAGAA	0.0282
CTGCAGTC	-0.13
TCCGACCA	-0.116
AGACTATG	-0.11
ATAACCGG	0.387
ATGAGTTC	-0.115
GTATTATA	0.305
ACGGGCAG	-0.0793
CCACAGTA	0.0669
ATTTGTTA	0.151
GAGATTAA	0.00852
AGAGGCTC	-0.247
CATTAATG	0.0676

Sequence	PBM E-score
GGGACTAC	-0.0133
CTTTTCAC	0.00083
CTGATTAA	0.166
CTTGGTAC	0.181
AATATGCC	-0.285
CGAGCGGA	-0.173
CAGTAATA	0.112
CAATGCAC	-0.139
GGAGAGCA	-0.206
CATAGATG	-0.173
GAGGGCGC	-0.277
GACGCAGA	-0.0982
GAGTTAAA	0.0833
GGAAGGAC	-0.27
AAGTACAG	-0.182
CCTGGGTC	0.148
AGTTGATG	0.0076
ATCTGAAG	-0.213
AATCGTTC	-0.085
AAATTGCT	-0.0693
CGCAGCAA	-0.12
ACCCACAC	0.225
ATCCCAAG	0.132
GGGCGCTA	-0.32
ATCTTATC	-0.0113

Sequence	PBM E-score
CGTCCAAG	-0.289
TGTCTAAA	0.0857
GTAGTCCA	-0.0358
CTCCTCAC	-0.367
TACCGTAA	0.27
GCGCGGCA	-0.155
GCTATCGA	-0.0297
AGGGCACG	-0.292
AAAGGGTC	0.363
AGTCCAAT	0.00298
TCAACACA	0.172
CTCAATAA	0.0562
CCTCGTGC	0.024
CCTCGGAA	0.215
ACTCATAG	-0.142
GCTTAGCA	-0.148
CAAGCGAC	-0.257
CTAGCCCC	-0.0599
ATCAGAGC	-0.0443
AACGATAG	0.0456
ATACGTTA	0.0516
GCACTAGA	-0.197
ACCCTCTA	0.355
AAAATTAT	0.236
CATCTTTA	-0.0193

Sequence	PBM E-score
ACATGGAT	-0.0604
AACTGCGT	-0.163
ATAGTCCC	-0.273
AACGACAC	0.0852
ATCCGGAA	0.0059
GATGAACA	0.0452
CTTGTTTC	0.15
ATCTTCAT	-0.144
CCTCTCAC	-0.0256
GACTATGA	-0.0524
CGGCATAA	0.0916
CCCAAGTC	-0.191
CACAGAAA	0.184
CTGCCTCC	-0.237
CTCAGGGC	-0.0163
GAAACGCA	-0.104
TTAACCAA	0.317
GTAGGAAC	0.0295
GAATACCA	0.0327
AAAGGGGC	-0.00977
TCCCTACA	-0.0805
AAGCCGGG	-0.177
CGTTGTGA	-0.151
CTTCCGCA	-0.0327
CGAGTGGC	-0.272

Sequence	PBM E-score
CTGGAAAG	-0.0479
ACATATCA	0.166
CTATGGAA	0.0396
ACCTTGGC	0.106
CAAACATG	0.0913
CTTGGTTC	0.232
AGTTCGTA	-0.0771
TGCGTCCA	-0.167
CACAATAC	0.159
ACGTCGTC	-0.0901
AGCCAAAA	0.122
ATGCATAA	-0.0505
CCTGCACA	-0.0498
CCCGGTAC	0.128
CTTGGTGC	-0.211
GAATCCTA	-0.0331
ATGCATCC	-0.135
CTCCCCAG	-0.164
ATGTGTTA	0.0877
TAGGTGAA	0.0359
AAAGCCTA	-0.0886
TCTCTTCA	-0.139
AGTCTCGC	-0.13
CTAGGGCA	-0.129
AACGGCAA	-0.144

Sequence	PBM E-score
CGCGTAAA	0.1
GCGACCAA	0.165
CATTCATA	0.167
ACCCTAAG	0.457
CGGTCCCC	-0.00173
ACGCGGAG	-0.0631
GACCAGAC	0.0299
AGGAGATA	-0.178
GGGCCGTA	-0.0203
CGTCTTAG	-0.141
ATAGCAGG	0.0205
AACTCAGG	-0.0157
CGCTGTAG	-0.0306
CGCCTTGC	-0.135
TGACGTAA	-0.0854
AGGATTTG	-0.103
ATCCCTGC	-0.201
AATAATTC	-0.0371
AGGACTAC	-0.186
AAATTAGG	0.162
ACCCAGAA	0.262
GCCTCTGA	-0.16
CAGGCACC	-0.161
AAGAGTCC	-0.0923
ATTTAGGA	0.104

Sequence	PBM E-score
ATAATGAA	0.187
CTCGTCAG	-0.0506
CCGCTCTC	-0.112
ACATGCCA	0.0303
GGGGGAGA	-0.245
AGGACGGC	-0.231
AGCCGCGG	0.175
ATTCGACA	-0.0415
ACACCTTC	0.0347
GCTAGGCA	-0.168
AGGAAGGA	-0.273
AACTGAAC	-0.00072
CGGGTTCC	0.157
AACCCTTA	0.457
TACAGCAA	-0.00013
CCAGCTGA	-0.0768
CATAAAAC	0.0957
ATATGACA	0.0395
CTACCACA	0.16
CATGGCGA	-0.0505
ATGTTGGG	0.0154
CCACTCAA	0.193
